Test results: paper PMC2814318 (Journal of neurochemistry, 2009)

Target: His-tagged β1b subunit (rat, UniProt P54283 1-597)
Test: glutathione-coated plate-binding assay

Sequence of UniProt P54283 (P54283 whole entry): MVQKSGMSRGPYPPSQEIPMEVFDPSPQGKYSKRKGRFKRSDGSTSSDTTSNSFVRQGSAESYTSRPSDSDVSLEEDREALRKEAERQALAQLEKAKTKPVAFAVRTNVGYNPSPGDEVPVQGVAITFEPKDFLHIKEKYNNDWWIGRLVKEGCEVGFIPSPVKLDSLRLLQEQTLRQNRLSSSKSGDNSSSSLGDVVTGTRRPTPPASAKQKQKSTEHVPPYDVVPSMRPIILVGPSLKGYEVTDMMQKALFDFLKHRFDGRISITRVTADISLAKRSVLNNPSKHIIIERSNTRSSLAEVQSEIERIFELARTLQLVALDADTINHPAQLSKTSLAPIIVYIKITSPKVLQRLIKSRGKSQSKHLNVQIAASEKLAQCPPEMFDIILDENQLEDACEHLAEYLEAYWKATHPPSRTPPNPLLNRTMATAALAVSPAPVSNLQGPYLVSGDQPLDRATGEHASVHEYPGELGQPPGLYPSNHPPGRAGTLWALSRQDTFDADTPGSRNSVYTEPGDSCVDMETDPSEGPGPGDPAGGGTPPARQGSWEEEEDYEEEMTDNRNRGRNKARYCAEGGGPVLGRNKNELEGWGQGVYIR

binding result: binds
B1: Thr286-autophosphorylated CaMKIIα (enzyme)
chain: not shown
modifications: phosphothreonine at 286 (autophosphorylated; 32P-labelled for the plate-binding assay)
